Experimental data reported in patent US20170239239A1, “Method for Inducing a Sustained Immune Response” (Immune Therapeutics Inc., priority 2016, published 2017).
Read-outs that look alike come from different tables or passages of the source.

Key:
Hepatitis C = assay: Case reports, Hepatitis C; format: in vivo, human
From the text: In May 2010, it had dropped down to 11.400.

fibromyalgia [1] = assay: Randomized, double blind, placebo-controlled crossover study in 31 women with fibromyalgia; format: in vivo, human
From the text: Thirty-one women with fibromyalgia participated in the randomized, double blind, placebo-controlled, and counterbalanced, crossover study. […] An intensive longitudinal design was used to measure daily levels of pain.

[2] = test system: A549 (lung) and HCT116 (CRC); assay: Continuous 48 h exposure to naltrexone, lung and CRC cells
[3] = test system: CDK Inhibitors p15, p18, p19, and p27; assay: Expression of CDK inhibitors
Hashimoto's = assay: Case reports, Hashimoto's thyroiditis
Description: Patient was taking L-thyroxine and pain medications and 75 mg Zoloft.
Patients was taking Synthroid 150 mcg, Compounded T3 25 mcg, Progesterone 150 mg, Plus lots of supplements like Magnesium, D3, Methyl B12, Methyl folate, Selenium, E, Amino Restore, CLA, NAC, DE, Adaptacin.

multiple sclerosis (MS) = assay: Double-masked placebo-controlled crossover study of quality of life in MS, 80 subjects; format: in vivo, human
From the text: RESULTS: Eighty subjects with clinically definite MS were enrolled, and 60 subjects completed the trial. Ten withdrew before completing the first trial period: 8 for personal reasons, 1 for a non-MS-related adverse event, and 1 for perceived benefit. Database management errors occurred in 4 other subjects, and quality of life surveys were incomplete in 6 subjects for unknown reasons. […] LDN was associated with significant improvement on the following mental health quality of life measures: a 3.3-point improvement on the Mental Component Summary score of the Short Form-36 General Health Survey (p=0.04), a 6-point improvement on the Mental Health Inventory (p<0.01), a 1.6-point improvement on the Pain Effects Scale (p=0.04), and a 2.4-point improvement on the Perceived Deficits Questionnaire (p=0.05). […] Further studies with LDN in MS are warranted.

stomach cancer = assay: Case report, stage 3 stomach cancer; format: in vivo, human
From the text: person diagnosed with stage 3-stomach cancer prognosis 6 months to live on Mar. […] 28, 2007. In addition to Immediate release naltrexone patients received chemotherapy and kidney stents inserted.

asymptomatic HIV+ adults = settings: 3 mg compounded, with ART, cited from earlier work
[4] = test system: adenocarcinoma of the pancreas with metastases to the liver; settings: person, cited from earlier work
diabetic neuropathy = assay: Case report, diabetic neuropathy; format: in vivo, human
From the text: person, diagnosed with diabetic neuropathy for the last six years was prescribed one or two tablets every four to six hours as needed for pain. Patient takes between 4 to 8 tablets a day.

Crohn's disease = assay: Open study of 4.5 mg naltrexone/day in active Crohn's disease, 17 patients; format: in vivo, human
Description: Infliximab was not allowed for a minimum of 8 weeks prior to study initiation. Other therapy for Crohn's disease that was at a stable dose for 4 weeks prior to enrollment was continued at the same doses. Patients completed the inflammatory bowel disease questionnaire (IBDQ) and the short-form (SF-36) quality of life surveys and CDAI scores were assessed pretreatment, every 4 weeks on therapy and 4 weeks after completion of the study drug. Drug was administered by mouth each evening for a 12-week period. RESULTS: Seventeen patients with a mean CDAI score of 356+/−27 were enrolled.

fibromyalgia [5] = assay: Case report, Fibromyalgia and Epstein Barr; format: in vivo, human; settings: person; 0.5 mg increased to 3 mg
From the text: A person was diagnosed in 1998 Fibromyalgia and Epstein Barr, had to quit work, in pain and very depressed. Various treatments over the years for pain prescribed and other problems with the disease.

ovarian cancer cells = assay: Ovarian cancer cells treated with different dosing regimens of naltrexone; format: cell-based; settings: water control
Description: They also prevent the adhesion of cancer cells to bone marrow stromal cells and thereby inhibit the enhanced secretion of migratory factors, such as interleukin (IL)-6, TNF-α, and vascular endothelial growth factor. In research experiments, ovarian cancer cells were treated with either water as the control or different dosing regimens of naltrexone to replicate high dose versus Immediate release dosing of naltrexone.

myasthenia gravis = assay: Case report, myasthenia gravis; format: in vivo, human; settings: person four
fibromyalgia [6] = assay: Open label single center study in 25 fibromyalgia patients; format: in vivo, human

For O=C1CC[C@@]2(O)[C@H]3Cc4ccc(O)c5c4[C@@]2(CCN3CC2CC2)[C@H]1O5 [Immediate release naltrexone, naltrexone], the Liver enzymes (Hepatitis C; person three) was “dropped to normal”, the ultrasound of liver (Hepatitis C; person three) was “No fatty liver” and the HCV viral load (Hepatitis C; person three, from over a million in January 2009, May 2009) was 49,000. The “use of other medication” value (Hepatitis C; person, Hepatitis C and Diabetes, 4 mg once a day in the morning) was “no longer takes prednisone or other immunosupression drugs”, the Viral load (Hepatitis C; person, stage 4 cirrhosis, 4.5 mg from March of 2011, from 24.4 million, by May of 2011) was 11.9 million and the “reduction of baseline pain” value (fibromyalgia [1]; 4.5 mg oral daily, placebo 18.0%, P=0.016) was 28.8%. For the same compound, the mood (fibromyalgia [1]; P=0.039) was “improved”, the “general satisfaction with life” value (fibromyalgia [1]; P=0.045) was “improved” and the fatigue or sleep (fibromyalgia [1]; in vivo) was “not improved”. The serious side effects (fibromyalgia [1]; in vivo) was “no serious side effects”, the tolerability (fibromyalgia [1]; in vivo) was “equally tolerable as placebo” and the “effect on A549 (lung) and HCT116 (CRC)” value [2] was “no effect”. For the same compound, the “expression of CDK Inhibitors p15, p18, p19, and p27” value [3] was “not altered”, the side effect (Hashimoto's; person one) was “strange dreams” and the Latest lab work (Hashimoto's; person, 1.5 mg) was “normal in all areas”. The “use of other medication” value (Hashimoto's; person, 1.5 mg) was “able to go off the Advair, Nasacort, and Albuterol”, the TPO levels (Hashimoto's; person, 4.5 mg with T3/T4, from 350) was “returned to normal” and the TgAb (Hashimoto's; person, 4.5 mg, lowered from 77) was < 1. The TPO (Hashimoto's; person, lowered from 229) was 203, the serious adverse events (multiple sclerosis (MS); human, in vivo) was “did not occur” and the tolerability (multiple sclerosis (MS); human, in vivo) was “well tolerated”. For the same compound, the “improvement on the Mental Health Inventory” value (multiple sclerosis (MS); p<0.01) was 6 point, the “improvement on the Pain Effects Scale” value (multiple sclerosis (MS); p=0.04) was 1.6 point and the “improvement on the Perceived Deficits Questionnaire” value (multiple sclerosis (MS); p=0.05) was 2.4 point. For the same compound, the disease status (stomach cancer; December of 2007) was “in remission and stable”, the CT scan (stomach cancer; March 2008) was “tumors had shrunk in half” and the scan (stomach cancer; March of 2009) was “tumors were stable”. The CT scan (stomach cancer; person, 4.5 mg plus chemotherapy, September 2007) was “tumors shrunk in half”, the “improvement in CD4 count vs control group” value (asymptomatic HIV+ adults; at 6 months (p=0.041)) was “significantly greater” and the “improvement in CD4 count vs control group” value (asymptomatic HIV+ adults; at 9 months (p=0.067)) was “marginally”. The “Improvement in CD4%” value (asymptomatic HIV+ adults; throughout treatment) was “not statistically significant”, the “duration of comparatively stable disease” value ([4]; 4.5 mg at bedtime with IV and oral ALA, selenium, silymarin, diet) was > 3 year and the quality of life ([4]; same regimen) was “improved”. For the same compound, the “use of pain tablets” value (diabetic neuropathy; person, 4.5 mg, within 3 days) was “cut down the number of pills in half”, the “use of pain medication” value (diabetic neuropathy; within 8 weeks) was “stopped all pain medication” and the CDAI scores (Crohn's disease; 4.5 mg/day by mouth each evening, 12 weeks, baseline 356+/−27, P=0.01) was “decreased significantly”. The “patients who achieved a remission” value (Crohn's disease; P<0.001) was 67%, the laboratory abnormalities (Crohn's disease; human, in vivo) was “No laboratory abnormalities” and the “quality of life surveys (IBDQ, SF-36) vs baseline” value (Crohn's disease; human, in vivo) was “Improvement”. The pain level decreased (fibromyalgia [5]) was 90%, the “growth of cancer cells” value (ovarian cancer cells; Immediate release low or short-term dosing) was “slowed” and the “growth of cancer cells” value (ovarian cancer cells; high dose of naltrexone) was “stimulated and grew faster”. The “attacks after resuming treatment” value (myasthenia gravis) was “no attacks since”, the “time to return of symptoms after running out of drug” value (myasthenia gravis) was ≤ 72 h and the “overall improvement in FIQR” value (fibromyalgia [6]; 4.5 mg, at Month 3, 22 patients completing) was 19.5%. The “average improvement in FIQR” value (fibromyalgia [6]; Eleven patients (50%)) was 41%.
